Among all 410,000 compounds or so, about 530 (0.13%) were called active. The inconclusive results got no clear call from the source; some entries with a clear call stand among them for comparison. Calls follow the shape of the dose curve; as a rule, active = well fitted inhibition curve with a large enough effect; inconclusive = small, poorly fitted or top-dose-only effect, or another doubt; inactive = no such curve, though single readings can be large or run the other way. Potencies of inconclusive entries are doubtful fits and often do not repeat.
Test: qHTS of GLP-1 Receptor Inverse Agonists: Cytotox Screen
Conditions: HEK293 cAMP-luciferase reporter cells, luminescence, 24 h; activity change, negative = inhibition: at 38.3 µM (top of the series) unless noted
Summary of the method: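 Here, cytotoxicity is scored as loss of luminescence. The MLSMR collection was tested on cells seeded in medium containing 10% Nu serum, with a 24 hr compound exposure preceded by 12 hours of culture.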
% is scaled to controls: 0 for no effect and ±100 for the full control effect; potency is read from the fitted curve at half-maximal effect.

Row | SMILES | Potency | activity change, negative = inhibition
1 | C=CCn1c(O)c(C2=c3ccccc3=NC2=O)c2ccccc21 | inconclusive: 28.2 µM [inhibitor, single point] | –
2 | CCOC(=O)[C@]12Cc3cc(C)ccc3[C@H]1N(Cc1ccccc1)C(=O)c1cc(F)c(F)cc12 | inactive | –
3 | CCOc1ccc(N(Cc2ccc(C(=O)O)cc2)S(=O)(=O)c2ccc(C)cc2)cc1 | inconclusive: 11.2 µM [inhibitor, single point] | –
4 | C=C(C(=O)c1ccccc1)C(CC(=O)c1ccccc1)c1ccccc1 (centres undefined) | inconclusive: 11.2 µM [inhibitor, partial curve, poor fit] | –
5 | CC(C)c1ccc2c(c1)C(N1CCNCC1)Cc1ccc(F)cc1S2 (centres undefined) | inconclusive: 11.2 µM [inhibitor, single point] | –
6 | COc1cccc(C(c2nnnn2-c2ccc3c(c2)OCCO3)N2CCC3(CC2)C(=O)NCN3c2ccccc2)c1OC (centres undefined) | inconclusive: 31.6 µM [inhibitor, single point] | –
7 | CCc1ccc(-c2nc(CN3CCCC(C(=O)N4CCN(c5cc(Cl)ccc5C)CC4)C3)c(C)o2)cc1 (centres undefined) | inconclusive: 11.2 µM [inhibitor, partial curve, poor fit] | –
8 | N#CC(C#N)=NNc1ccc(-n2ccc(C(F)(F)F)n2)cc1 | inconclusive: 14.1 µM [inhibitor, partial curve, poor fit] | –
9 | O=C(c1ccccc1)c1ccc2cc(O)ccc2c1 | inconclusive: 28.2 µM [inhibitor, single point] | –
10 | O=C(NCc1cccnc1)Nc1ccccc1Cl | inconclusive: 28.2 µM [inhibitor, single point] | –
11 | COc1cc2c(cc1O)C[C@H]1c3c(cc(O)c(OC)c3-2)CCN1C | inactive | –
12 | O=C(Nc1ccn(CCCNCC(c2ccccc2)c2ccccc2)c(=O)n1)OCc1ccccc1 | inconclusive: 12.6 µM [inhibitor, single point] | –
13 | CC(=O)C1C(N2CC2)CC2C3CC=C4CC(O)CCC4(C)C3CCC21C (centres undefined) | inconclusive: 5.62 µM [inhibitor, partial curve, poor fit] | –
14 | O=C(CN1C(=O)c2ccccc2S1(=O)=O)NCCSCc1c(F)cccc1Cl | inconclusive: 11.2 µM [inhibitor, single point] | –
15 | CCc1ccc(C(=O)COC(=O)c2cc([N+](=O)[O-])ccc2NCCO)cc1 | inconclusive: 12.6 µM [inhibitor, partial curve] | –
16 | CN1CCCN(c2ccc([N+](=O)[O-])nc2)CC1 | inconclusive: 11.2 µM [inhibitor, single point] | –
17 | NC(N)=N/N=C/c1cn(-c2ccccc2)nc1-c1cccs1 | inconclusive: 11.2 µM [inhibitor, partial curve, poor fit] | –
18 | O=C1NC(=O)N(Cc2ccco2)C(=O)/C1=C\c1ccc(-c2ccc(F)cc2)o1 | inconclusive: 10 µM [inhibitor, single point] | –
19 | O=C(CCl)N(Cc1cccc([N+](=O)[O-])c1)c1cccc(Cl)c1 | inconclusive: 28.2 µM [inhibitor, single point] | –
20 | CC1(C)C/C(=N\NC(=S)Nc2ccccc2F)c2cc(O)ccc2O1 | inconclusive: 28.2 µM [inhibitor, single point] | –

Row | SMILES | Potency | activity change, negative = inhibition
21 | Cn1c(=O)cc(OCCCC(=O)N2CCC3(CC2)OCCO3)c2ccccc21 | inactive | –
22 | CC12C=CC(=O)C=C1CCC1C2C(=O)CC2(C)C(=O)CCC12 (centres undefined) | inactive | –
23 | C[C@]12CC[C@@H](O)CC1=CCC1C2CC[C@@]2(C)C1CC[C@@H]2N (some centres undefined) | inactive | –
24 | Cc1cc(C)c(OCC(=O)Nc2nc(-c3ccccn3)cs2)c(C)c1 | inconclusive: 28.2 µM [inhibitor, single point] | –
25 | CCCCC(=O)OCC(=O)C1(O)Cc2c(O)c3c(c(O)c2C(OC2CC(NC(=O)C(F)(F)F)C(O)C(C)O2)C1)C(=O)c1c(OC)cccc1C3=O (centres undefined) | inconclusive: 11.2 µM [inhibitor, partial curve, poor fit] | –
26 | CCCn1c(=N)n(CC(O)COc2cccc(C)c2)c2ccccc21 (centres undefined) | inconclusive: 28.2 µM [inhibitor, single point] | –
27 | N#Cc1c(Br)n(C2OC(CO)C(O)C2O)c2ncnc(N)c12 (centres undefined) | inconclusive: 10 µM [inhibitor, partial curve, poor fit] | –
28 | CCn1cc(C(=O)OCC(=O)c2cc(C)n(-c3ccccc3F)c2C)c(=O)c2ccc(C)nc21 | inconclusive: 28.2 µM [inhibitor, single point] | –
29 | CC1(c2ccccc2)NC(=O)N(CC(=O)Nc2cc(C(F)(F)F)ccc2N2CCCCC2)C1=O (centres undefined) | inconclusive: 28.2 µM [inhibitor, single point] | –
30 | CC(C)c1ccc(Nc2ncc3c(n2)CCN(C(=O)Nc2ccc(F)c(Cl)c2)C3)cc1 | inconclusive: 28.2 µM [inhibitor, single point] | –
31 | CCN(CC)c1ccc(CN2CC=C(c3ccc(F)cc3)CC2)cc1 | inconclusive: 28.2 µM [inhibitor, single point] | –
32 | COc1ccc(CCNC(=O)/C=C/c2ccc3ccccc3n2)cc1OC | inconclusive: 28.2 µM [inhibitor, single point] | –
33 | COC(=O)C1=C(c2cc3ccccc3o2)C[C@@H]2CC[C@H]1N2C(=O)NC(C)C | inconclusive: 3.16 µM [inhibitor, partial curve, poor fit] | –
34 | OC(Cc1cccc(Br)c1)c1ncc(-c2cccc(C(F)(F)F)c2)[nH]1 (centres undefined) | inconclusive: 28.2 µM [inhibitor, single point] | –
35 | O=[N+]([O-])c1ccc(N=Nc2ccc(O)cc2O)cc1 | inconclusive: 10 µM [inhibitor, partial curve, poor fit] | –
36 | Cn1cc(NC(=O)CCl)cn1 | inconclusive: 12.6 µM [inhibitor, single point] | –
37 | COC(=O)C1=C(c2ccc(OCc3ccccc3)c(F)c2)C[C@@H]2CC[C@H]1N2C | inconclusive: 11.2 µM [inhibitor, partial curve, poor fit] | –
38 | CCOC(=O)CS(=O)(=O)c1nc(-c2ccccc2)cc(C(F)(F)F)n1 | inconclusive: 10 µM [inhibitor, partial curve, poor fit] | –
39 | O=C(Nc1ccc(Cl)c(Cl)c1)O/N=C/c1ccncc1 | inconclusive: 11.2 µM [inhibitor, single point] | –
40 | CCN(CC)CCCOC(=O)C(OC(C)C)(c1ccccc1)c1ccccc1 | inconclusive: 28.2 µM [inhibitor, single point] | –

Row | SMILES | Potency | activity change, negative = inhibition
41 | O=C(Cn1c(SCC(=O)Nc2ccc(F)cc2)nc2ccccc21)NCc1ccc(Cl)cc1 | inconclusive: 28.2 µM [inhibitor, single point] | –
42 | COc1ccc(-c2noc(CCC(=O)NCCCN3CCC(Cc4ccccc4)CC3)n2)cc1 | inconclusive: 8.91 µM [inhibitor, partial curve, poor fit] | –
43 | c1cnc2c(c1)ccc1cccnc12 | inconclusive: 7.94 µM [inhibitor, partial curve, poor fit] | –
44 | Cc1ccccc1Nc1c(-c2ccncc2)nc2ccc(Br)cn12 | inconclusive: 28.2 µM [inhibitor, single point] | –
45 | COc1ccccc1OCCCn1cc(C(=O)C2CC2)c2ccccc21 | – | inactive: 2.27% [at 0.307 µM]
46 | CN(C)CCCN(C(=O)CCc1ccccc1)c1nc2ccc(Br)cc2s1 | inconclusive: 12.6 µM [inhibitor, single point] | –
47 | COc1ccc(NS(=O)(=O)c2cc(N=Nc3c(O)[nH]c(=O)[nH]c3=O)ccc2Cl)cc1 | inconclusive: 10 µM [inhibitor, single point] | –
48 | CCN(CC)c1ccc(/C=N/NC(=O)CNC(=O)C2COc3ccccc3O2)c(O)c1 (centres undefined) | inconclusive: 2.82 µM [inhibitor, single point] | –
49 | CN1[C@@H]2CC[C@H]1CC(OC(=O)C1C=Nc3ccccc31)C2 (some centres undefined) | inconclusive: 11.2 µM [inhibitor, single point] | –
50 | C[C@@H]1CN([C@H](C)CO)C(=O)c2c(c3ccccc3n2C)-c2ccccc2CO[C@H]1CN(C)Cc1ccc(C(F)(F)F)cc1 | inconclusive: 12.6 µM [inhibitor, single point] | –
51 | C/C(CC(=O)NCc1ccccc1)=N\NC(N)=S | inconclusive: 28.2 µM [inhibitor, single point] | –
52 | CN1C(=O)N(C)C(=O)C2(Cc3cc([N+](=O)[O-])ccc3N(C)C2)C1=O | inconclusive: 31.6 µM [inhibitor, single point] | –
53 | COc1ccc(/C=N/NC(=O)c2cccnc2)cc1COc1ccc([N+](=O)[O-])cc1 | inconclusive: 28.2 µM [inhibitor, single point] | –
54 | CC1CN(c2nc(-c3ccc(Br)cc3)nnc2-c2ccccc2)CC(C)N1 (centres undefined) | inconclusive: 10 µM [inhibitor, single point] | –
55 | COc1ccc2sc(-c3ccc(SC)cc3)c(-c3ccc(O)cc3)c2c1 | inconclusive: 11.2 µM [inhibitor, partial curve, poor fit] | –
56 | COc1cc(/C=C2/SC(=Nc3ccc(O)cc3)NC2=O)cc(OC)c1O | – | inactive: -0.0781% [at 7.66 µM]
57 | CS(=O)(=O)c1ccc(C2=C(CNC(=O)c3ccc([N+](=O)[O-])cc3)[C@H]3CC[C@@H](C2)N3CCOc2ccccc2)cc1 | inconclusive: 12.6 µM [inhibitor, partial curve, poor fit] | –
58 | S=C1CN=C(c2ccccc2Cl)c2cc(Cl)ccc2N1 | inconclusive: 28.2 µM [inhibitor, single point] | –
59 | Cc1ccc(-c2cc(-c3ccccc3)cc(-c3ccccc3)[n+]2-c2ccccc2)cc1 | inconclusive: 6.31 µM [inhibitor, partial curve, poor fit] | –

From PubChem BioAssay AID624418 (National Center for Advancing Translational Sciences (NCATS), 2012)
